IC50 is the fitted dose that halves viability relative to control wells, and lower means more sensitive; a limit (>, <) means that the fit lies beyond the doses tested. The AUC spans the tested range (256-fold, ending at the top dose) of the same fit; it is 1 without any effect and falls as sensitivity rises. The top dose, if marked as inferred, was calculated from the reported fits. For part of these data: Where an entry number is given, a second screen of the drug exists; the two often differ.
What was measured:
Assay in all cases: Viability of human cancer cell lines after 72 h of drug (GDSC screen)
Wee1 inhibitor 681640 = compound: O=C1NC(=O)c2c1c(-c1ccccc1Cl)cc1[nH]c3ccc(O)cc3c21 [Wee1 inhibitor 681640]; details: top dose 2 µM; top dose inferred
Procedure: (§1)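 Human cancer cell lines in 384-well plates, medium with 10% serum, drug for 72 h over a 256-fold dose range (nine 2-fold or five 4-fold steps up to the top dose). Adherent lines were fixed and stained with the nucleic acid dye Syto60, suspension lines read with resazurin; signal relative to control wells, capped at 0 and 100%. One two-parameter sigmoid per drug and line, fitted in a mixed model over all curves with the slope shared within a line.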

CGP-082996 (CINK4) = compound: CCNc1cc(NC2CCC(O)CC2)nc(Nc2ccc3c(ccn3Cc3ccccc3)c2)n1 [CGP-082996 (CINK4)]; details: top dose 5.12 µM; top dose inferred
Procedure: as §1

A-770041 = compound: COc1cc(-c2nn([C@H]3CC[C@H](N4CCN(C(C)=O)CC4)CC3)c3ncnc(N)c23)ccc1NC(=O)c1cc2ccccc2n1C [A-770041]; details: top dose 5.12 µM; top dose inferred
Procedure: as §1

VX-702 = compound: NC(=O)c1ccc(N(C(N)=O)c2c(F)cccc2F)nc1-c1ccc(F)cc1F [VX-702]; details: top dose 2 µM; top dose inferred
Procedure: as §1

BMS-536924 = compound: Cc1cc(N2CCOCC2)cc2[nH]c(-c3c(NC[C@@H](O)c4cccc(Cl)c4)cc[nH]c3=O)nc12 [BMS-536924]
Procedure: as §1

SB-525334 = compound: Cc1cccc(-c2[nH]c(C(C)(C)C)nc2-c2ccc3nccnc3c2)n1 [SB-525334]; details: top dose 20 µM; top dose inferred
Procedure: as §1

Shikonin = compound: CC(C)=CC[C@@H](O)C1=CC(=O)c2c(O)ccc(O)c2C1=O [Shikonin]; details: top dose 16 µM; top dose inferred
Procedure: as §1

XMD8-85 = compound: COc1cc(N2CCN(C)CC2)ccc1Nc1ncc2c(n1)N(C)c1ccccc1C(=O)N2C [XMD8-85]; details: top dose 8 µM; top dose inferred
Procedure: as §1

Olaparib = compound: O=C(c1cc(Cc2n[nH]c(=O)c3ccccc23)ccc1F)N1CCN(C(=O)C2CC2)CC1 [Olaparib]
Procedure: as §1

HG-5-113-01 = compound: CNC(=O)c1ccc(Nc2cc(Nc3ccccc3S(=O)(=O)C(C)C)c3cc[nH]c3n2)nc1 [HG-5-113-01]; details: top dose 10 µM; top dose inferred
Procedure: as §1

BIRB 0796 = compound: Cc1ccc(-n2nc(C(C)(C)C)cc2NC(=O)Nc2ccc(OCCN3CCOCC3)c3ccccc23)cc1 [BIRB 0796]; details: top dose 10 µM; top dose inferred
Procedure: as §1

[1] = top dose 4 µM, screen: GDSC drug entry 1091, top dose inferred
[2] = top dose 5.12 µM, screen: GDSC drug entry 62
[3] = top dose 5 µM, screen: GDSC drug entry 1017, top dose inferred
[4] = top dose 10 µM, screen: GDSC drug entry 1495

Cell Line | AUC (Wee1 inhibitor 681640) | IC50 (Wee1 inhibitor 681640) | AUC (CGP-082996 (CINK4)) | IC50 (CGP-082996 (CINK4)) | AUC (A-770041) | IC50 (A-770041) | AUC (VX-702) | IC50 (VX-702) | AUC (BMS-536924; [1]) | IC50 (BMS-536924; [1]) | AUC (BMS-536924; [2]) | IC50 (BMS-536924; [2]) | AUC (SB-525334) | IC50 (SB-525334) | AUC (Shikonin) | IC50 (Shikonin) | AUC (XMD8-85) | IC50 (XMD8-85) | AUC (Olaparib; [3]) | IC50 (Olaparib; [3]) | AUC (Olaparib; [4]) | IC50 (Olaparib; [4]) | AUC (HG-5-113-01) | IC50 (HG-5-113-01) | AUC (BIRB 0796) | IC50 (BIRB 0796)
HCC2218 (breast, suspension) | 0.977 | > 2000 nM | 0.943 | > 5.12 µM | 0.814 | 3.72 µM | 0.958 | > 2000 nM | 0.982 | > 4000 nM | 0.967 | > 5120 nM | 0.945 | > 20 µM | 0.394 | 474 nM | 0.976 | > 8 µM | 0.975 | > 5 µM | 0.978 | > 10 µM | 0.828 | 8420 nM | 0.982 | > 10 µM
HSC-39 (stomach, suspension) | 0.886 | 1670 nM | 0.975 | > 5.12 µM | 0.983 | > 5.12 µM | 0.962 | > 2000 nM | 0.802 | 1650 nM | 0.69 | 997 nM | 0.991 | > 20 µM | 0.99 | > 16000 nM | 0.966 | > 8 µM | 0.965 | > 5 µM | 0.988 | > 10 µM | 0.617 | 1250 nM | 0.985 | > 10 µM
HUTU-80 (digestive system, adherent) | 0.991 | > 2000 nM | 0.851 | 2.93 µM | 0.73 | 1.26 µM | 0.991 | > 2000 nM | 0.912 | > 4000 nM | 0.578 | 503 nM | 0.867 | 13.1 µM | 0.369 | 467 nM | 0.913 | > 8 µM | 0.93 | > 5 µM | 0.896 | 8.54 µM | 0.659 | 1590 nM | 0.974 | > 10 µM
